Experimental data taken from the supplement of paper PMC10600219.
Counter-ions that a name gives are not always drawn. The full ranking holds about 2,800 compounds; the median of “cell viability relative to vehicle” is about 0.98, and the lowest 2% start at about 0.45. Some of the results follow.

test system: NCI-H2228 alectinib-DTP; assay: cell viability relative to vehicle (fraction of vehicle); NCI-H2228 is an ALK-positive lung cancer line and DTP means drug-tolerant persister; higher = less growth inhibition; conditions: 100 nM; treatment time 6 days
Method in brief: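 Parental NCI-H2228 cells and drug-tolerant persister cells (made with 1000 nM of a targeted drug for 13 days) were seeded in 384-well plates. The next day, the 3114-agent TargetMol anti-cancer compound library was added at 100 nM, with DMSO as vehicle. After 6 days, ATP was read with the CellTiter-Glo 3D Cell Viability Assay. Each value is cell viability relative to vehicle-treated cells.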

| SMILES | cell viability |
| --- | --- |
| C#C[C@]1(O)CC[C@H]2[C@@H]3CCc4cc(O)ccc4[C@H]3CC[C@@]21C [Ethynyl estradiol] | 1.03 |
| O=C(O)C(Cc1c[nH]c2ccccc12)N1C(=O)c2ccccc2C1=O (stereo not drawn) | 0.915 |
| CCOc1cc(CC(=O)N[C@@H](CC(C)C)c2ccccc2N2CCCCC2)ccc1C(=O)O [Repaglinide] | 1.13 |
| C[C@@H]1CC[C@]2(C(=O)O)CC[C@]3(C)C(=CCC4[C@@]5(C)CC[C@H](O[C@@H]6OC[C@H](O)[C@H](O)[C@H]6O)C(C)(C)C5CC[C@]43C)[C@@H]2[C@]1(C)O (stereo partly drawn) [Ziyuglycoside II] | 1.09 |
| Cn1c(=O)n(-c2ccc(C(C)(C)C#N)cc2)c2c3cc(-c4cnc5ccccc5c4)ccc3ncc21 [Dactolisib] | 0.435 |
| Cc1cc(C(=O)Nc2nc3cccc(Cl)c3n2[C@@H]2CCCCN(C(=O)/C=C/CN(C)C)C2)ccn1 [Nazartinib] | 0.907 |
| COc1cc2/c(=N/c3ccc(Br)cc3F)nc[nH]c2cc1OCC1CCN(C)CC1 [Vandetanib] | 0.905 |
| Cn1cc(C[C@@H](N)C(=O)O)c2ccccc21 [Indoximod] | 1.14 |
| O=C(CCCCCN1C(=O)c2cccc3cccc(c23)C1=O)NO [Scriptaid] | 0.917 |
| O=C(O)[C@@H]1CSCN1 [Thioproline] | 1.1 |
| C=C[C@@]1(C)CC(=O)[C@]2(O)[C@@]3(C)[C@@H](O)CCC(C)(C)[C@@H]3[C@H](O)[C@H](OC(C)=O)[C@@]2(C)O1 [Forskolin] | 1.1 |
| CCN(CC)C(=S)SSC(=S)N(CC)CC [Disulfiram] | 0.983 |
| O=C1C(=Cc2cccnc2)C(=O)c2ccccc21 | 1.07 |
| Cc1cc(OCCCS(C)(=O)=O)cc(C)c1-c1cccc(COc2ccc3c(c2)OC[C@H]3CC(=O)O)c1 | 0.968 |
| O=c1cc(-c2ccccc2)oc2cc(O)cc(O)c12 [Chrysin] | 0.861 |
| O=c1sn(-c2cccc3ccccc23)c(=O)n1Cc1ccccc1 [Tideglusib] | 0.82 |
| Cc1noc(-c2ccc(-c3ccc(CC(=O)O)cc3)cc2)c1NC(=O)O[C@H](C)c1ccccc1 | 0.874 |
| CC(C)=CCC[C@](C)(O[C@@H]1O[C@H](CO)[C@@H](O)[C@H](O)[C@H]1O)[C@H]1CC[C@]2(C)[C@@H]1[C@H](O)C[C@@H]1[C@@]3(C)CC[C@H](O)C(C)(C)[C@@H]3[C@@H](O[C@@H]3O[C@H](CO)[C@@H](O)[C@H](O)[C@H]3O)C[C@]12C [Ginsenoside Rg1] | 0.947 |
| O=C1NCCc2[nH]c(-c3ccncc3)cc21 | 0.998 |

| SMILES | cell viability |
| --- | --- |
| Cc1ccc(NC(=O)c2cccc(N(C)C)c2)cc1NC(=O)c1ccc(O)cc1 | 0.899 |
| COc1ccc(S(=O)(=O)Nc2cccnc2Nc2ccc(O)cc2)cc1 | 0.905 |
| CCNC(=O)CCC/C=C\C[C@@H]1[C@@H](/C=C/[C@@H](O)CCc2ccccc2)[C@H](O)C[C@@H]1O [Bimatoprost] | 0.982 |
| COC(=O)C1=C(C)NC(C)=C(C(=O)OC2CCCN(Cc3ccccc3)C2)C1c1cccc([N+](=O)[O-])c1 (stereo not drawn) [Benidipine hydrochloride] | 1.04 |
| O=C(Cl)C(=O)c1c[nH]c2ccccc12 [Indole-3-Glyoxylyl Chloride] | 1.1 |
| O=C(CCCCCCC(=O)Nc1ccccc1)NO [Vorinostat] | 0.786 |
| O=C(/C=C/c1ccc(O)c(O)c1)c1ccc(O)cc1O [Butein] | 1.03 |
| CCN(CC)CCOc1ccc2c(c1)C(=O)c1cc(OCCN(CC)CC)ccc1-2 [Tilorone dihydrochloride] | 1.03 |
| O=C(O)c1ccc2c(c1)nc(Nc1cccc(Cl)c1)c1ccncc12 [Silmitasertib] | 0.834 |
| COc1ccc(C=CC(=O)O)cc1OC [3,4-Dimethoxycinnamic acid] | 0.979 |
| Nc1[nH]nc2nnc(-c3c(-c4ccccc4)nn4ccccc34)cc12 | 1.15 |
| Cc1cc(NS(=O)(=O)c2ccc(N)cc2)no1 [Sulfamethoxazole] | 1 |
| C=C1CC[C@@H]2[C@](C)(CO[C@@H]3O[C@H](CO)[C@@H](O)[C@H](O)[C@H]3O)CCC[C@@]2(C)[C@@H]1CCC1=CCOC1=O [Neoandrographolide] | 0.966 |
| CC(C)N(CCCNC(=O)Nc1ccc(C(C)(C)C)cc1)C[C@H]1O[C@@H](n2cc(Br)c3c(N)ncnc32)[C@H](O)[C@@H]1O | 0.881 |
| COc1cc(O)c2c(=O)c(O[C@@H]3O[C@H](CO)[C@@H](O)[C@H](O)[C@H]3O)c(-c3ccc(O[C@@H]4O[C@H](CO)[C@@H](O)[C@H](O)[C@H]4O)cc3)oc2c1 [Complanatoside] | 1 |
| C[C@H](CCC(=O)NCC(=O)O)[C@H]1CC[C@H]2[C@@H]3[C@H](O)C[C@@H]4C[C@H](O)CC[C@]4(C)[C@H]3CC[C@]12C [Glycochenodeoxycholic Acid] | 0.992 |
| CC1(C)S[C@@H]2[C@H](NC(=O)C(C(=O)O)c3ccccc3)C(=O)N2[C@H]1C(=O)O (stereo partly drawn) [Carbenicillin disodium] | 0.917 |
| CCN(CC)CCOC(=O)C(Cc1cccc2ccccc12)CC1CCCO1 (stereo not drawn) [Nafronyl oxalate] | 1.03 |
| CC(C)NCC(O)COc1ccc(COCCOC(C)C)cc1 (racemic) [(±)-Bisoprolol hemifumarate] | 1.1 |
